In the supplement of paper PMC10126150:
Sequences with one replicate were seen in a single cluster, so their values are uncertain.

Tested on: ATP
Experiment: switch fluorescence ratio, 500 uM ATP over buffer (Cy3 cluster intensity, sum of 5 cycles each) (fold (ratio)); higher = stronger signal-on switching upon ATP binding; sequences stand for … in TCGTCGGCAGCGTCAGATGTGTATAAGAGACAGTTTTTTTTTTTTTTTTTTTTTTTTT…TC
Conditions: aptamer strand: ATP DNA aptamer (quencher-CACCTGGGGGAGTATTGCGGAGGAAGG + anchor), 100 nM annealed; ATP concentration: 500 uM; one replicate
In short: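 Switching-strand clusters labelled with Cy3 on a modified Illumina MiSeq flow-cell were annealed to 100 nM quencher-labelled ATP aptamer, imaged in selection buffer, and re-imaged after 15 min with 500 uM ATP at 22 °C. This was done over five cycles with NaOH stripping and re-annealing in between. The fluorescence ratio is summed target-cycle over summed buffer-cycle Cy3 intensity per cluster, averaged per switch-domain sequence, excluding clusters outside 100-1000 RFU.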
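Also: ATP exposure 15 min at 22 °C before imaging.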

Sequence	switch fluorescence ratio
TGGGTTTGT	1.04
AGAATTAAAG	0.934
GACCTAACGA	1.44
ACTAAGGAGT	1.04
ACAGTTCGCC	0.938
GATCATGCGC	1.02
CTGCAGGGGC	1.23
TGATCCCCGG	1.08
AGTTCACGT	0.997
GGACCCAACT	1.04
GCTGTCCTCT	0.973
TAAGAGAGAT	1.01
CTGGGGACA	1
TGCCTCCTTT	0.985
GACCACTTAG	1.05
CTAATCATAT	0.958
ATTTGACAGC	0.981
CTCACGGCTA	1.15
GATGTCAAAA	1.04
TCTAATTCGA	1.01
GGATAAAAGC	0.971
CCGGCATTAG	4.27
GCACCTGGCA	1.03
AGAGGTAGTT	1.01
CGTAGCACAA	5.56
AGCCAGGAGT	1.08

Sequence	switch fluorescence ratio
TAATGGAACT	1.02
GGAAATTTTC	1.03
TCACGTACTG	1.7
AGGTTTAGAG	0.987
GTGCGCTTAA	1.05
CTCGGCGGAA	1.14
AATCTAGAGA	0.995
GTTTGGAT	1.02
CTAGTTAGAT	0.954
CTGTACACC	1.06
AGTAGGTACG	0.944
GTTGCTTCAC	1.02
AGGGCGATTG	1
TACCATCAAG	1.03
ACTGTAATCG	1.11
CGTATAAAGG	0.993
GGGACTTATC	1.01
GCTTTACGCC	0.994
TTAAAAACTT	1.07
CACGACGGTT	1.09
ATTCGGAGA	1
GATGTCCTGC	0.999
TACCGGCCCA	1.03
ACGCCGCGGG	1.16
AGCGTCCGAT	1.06
GGCATGCA	0.986

Sequence	switch fluorescence ratio
GCTTTGGCTG	0.99
TAATGTAGGA	0.962
CGCGGGGTTT	0.986
TGCAATATCA	1.41
GATTGACT	1.02
ATGGGCTCGC	0.986
ATCCAAACTC	1.06
AGCCGAGGTC	1.06
CGTGGTGGAA	1.04
AGCTTCTCAC	1.13
CTGGCCATAT	1.18
AACGTCCTGA	1.04
CTAACGGTAG	0.976
AAAGTGCA	0.988
CAAACCTCGC	1.07
AATAGGTAGA	1.01
GTTGGACCCA	1.05
AGCGTTTTAA	1.04
CCGAGGCGGA	1.81
GCAGTAGCGT	0.964
TTGGCAGGT	1.03
ACCTTTTGTT	1.02
GCCTCAGTCT	0.99
GACGGCCACG	0.986
TTTCAGTATC	1.03
GCACCCATTG	1.03

Sequence	switch fluorescence ratio
GTTCACCTCG	1.01
TGCTGATAAT	0.976
AGGAACGCCC	0.881
GCCAAGTGGG	0.973
CAGCCTTTTT	0.998
CATTCGAACA	1.02
AGGTTGTCCA	1.03
TGGCAGTTGG	1.02
TTGGGCA	0.995
CTCACGAGGT	1.03
AAGCCCTTCG	1.2
ACCGACAATT	1.3
TCGAGCCTTG	0.942
GACCTGAATA	1.04
GTTTGCAAAA	0.981
CCGTGTGCCA	1.08
CGTCAAGTCT	1.1
CATAGTCTGC	1.01
CAGCCAAGGG	1.01
GCACCTTTGA	1.02
ACTCGACCTA	1.23
CCACTTTCGA	1.04
CGCAGACTAA	1.36
CACCTGGCAT	1.14
GGTGGATCGC	1.04
TCCTCTCACA	2.2

Sequence	switch fluorescence ratio
CGTATTCTCG	1.05
ATAGAAAAGT	1.03
ATACGAATTA	0.992
CCAGTAGGAA	1.02
CTGCTGCGAT	1.6
TATAAGTGAC	1.04
AGGTTTGGAA	0.975
TAAATTGGGC	1
GATACTGGCT	1.02
AGTTAAGGTT	1
GCCTTGACCG	1.06
CTCGAATGGT	0.98
TTTTCGTAC	1.06
TAAGTGTGCG	0.879
TCTCTGAGCT	0.996
AGGCGGTTGT	0.993
CCGCCCCGTG	1.47
AAACGAAAAG	0.949
GTGGGTTTAG	0.994
GTAATCTTTT	0.977
AAGTGTTGCA	0.971
ACGATCGAGT	1.03
TAACGGGTAC	1.55
TCTTAAGTT	1.01
TTTCAAAATA	0.995
ATTGAACCAG	1.02

Sequence	switch fluorescence ratio
CGAATAGCTC	1.11
CAGAGAGTCT	1.07
AGCGTGTGAA	1.07
TAGGAGGGAT	0.975
GGTAATGATA	1.02
GAGTTGTGGT	0.974
TCCCACGACT	1.09
CTCCTTCTCA	1.01
TGGTGCGTGA	1.01
TTCAAAATGA	0.956
TGTAAAGATC	0.976
TGTCAACTGA	1.05
ACGGATACTG	1.05
GACAAGTTAG	1.01
ATTGGGTGGC	1.02
TGAATATGAC	1.05
TATGCCTAAA	0.996
CTTAAGCTCA	0.988
GTGGGGCAAT	1.19
GAGCTATAGG	1.15
ATCGCACCCT	1.19
TGACTTTTTT	1
GGGCCGTATT	0.985
GGTATGGGTT	0.983
TGGTAGCTAT	1.04
GGTGACGCGT	0.978

Sequence	switch fluorescence ratio
GCAGTAGGCT	0.994
CAAGCGCTGA	1.02
CTGCCGGAGG	1.08
CGTCACTGTT	0.961
GGAGTGAGCT	1.03
AGTAGTCGGA	1.03
CTTGATGTGC	1.02
GTTTTCGTTG	1.02
ATATGCATTA	1.01
TTATCGGCGA	1.07
GGAATCAAAA	0.949
AGAATCAGGG	1.02
CGTACCCATA	1.13
CCTAACGATG	1.14
CCGCGATTGT	6.35
AAATGGTCTA	0.993
TACGAATGTA	0.961
TTTTCGTTTA	1.05
TCCTCTTACA	1.18
ATACCGCTAA	1.61
GCCACGGCTT	0.982
ATCCCCCCGC	1.72
GAGCCCGCGA	1.08
CACATTTCTT	0.998
TCATAGGCTC	0.987
CATCTATT	0.966

Sequence	switch fluorescence ratio
TACACACGTT	1.4
TCATTGAACG	1.02
GGCCCACACT	1.05
CCCATTTAG	0.979
CTTGTGATTA	0.978
ACGTGTCG	0.981
CTTGTCACCT	1.11
TTGATAGTTA	1.02
ACGAGTTTC	1.01
TCACTATGAA	1.01
TGAGCTCGT	1.04
TTGGAACGCT	1
CGAAGTTCGC	0.96
AACGAAGGGC	1.02
TTTCGGACGA	1.04
TCTGTAGGCC	0.969
GGAGAGTCAC	0.967
CTATACAAGT	1.01
GGCATTTAA	0.994
